# The list shows a part of the results.
# Key:
# Experiment in all cases: glycan array binding signal (z-score within array); higher = stronger binding
# Conditions in all cases: glycan notation: IUPAC condensed, linker removed
# [1] = target: Fuc(a1-2)Gal
# In short: (§1)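 Glycan array data were curated from 3228 arrays in the Consortium for Functional Glycomics database and kept only where the protein sequence was available. Glycan names were converted to IUPAC-condensed notation, and columns mapping to the same glycan were averaged. The binding signal is a within-array Z-score, averaged across arrays of the same protein sequence at different concentrations or buffers and across linkers. Negative Z-scores can be read as non-binding.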
# [2] = target: Fuc(a1-2)Gal(b1-3)GalNAc
# In short: as §1
# [3] = target: Fuc(a1-2)Gal(b1-3)GalNAc(a1-3)[Fuc(a1-2)]Gal(b1-4)Glc
# In short: as §1
# [4] = target: Fuc(a1-2)Gal(b1-3)GalNAc(a1-3)[Fuc(a1-2)]Gal(b1-4)GlcNAc
# In short: as §1
# [5] = target: Fuc(a1-2)Gal(b1-3)GalNAc(b1-3)Gal
# In short: as §1
# [6] = target: Fuc(a1-2)Gal(b1-3)GalNAc(b1-3)Gal(a1-4)Gal(b1-4)Glc
# In short: as §1
# [7] = target: Fuc(a1-2)Gal(b1-3)GalNAc(b1-3)Gal(b1-4)Glc
# In short: as §1
# [8] = target: Fuc(a1-2)Gal(b1-3)GalNAc(b1-4)[Neu5Ac(a2-3)]Gal(b1-4)Glc
# In short: as §1
# [9] = target: Fuc(a1-2)Gal(b1-3)GlcNAc
# In short: as §1
# [10] = target: Fuc(a1-2)Gal(b1-3)GlcNAc(b1-2)Man(a1-3)[Fuc(a1-2)Gal(b1-3)GlcNAc(b1-2)Man(a1-6)]Man(b1-4)GlcNAc(b1-4)GlcNAc
# In short: as §1
# [11] = target: Fuc(a1-2)Gal(b1-3)GlcNAc(b1-2)Man(a1-3)[Fuc(a1-2)Gal(b1-3)GlcNAc(b1-2)Man(a1-6)]Man(b1-4)GlcNAc(b1-4)[Fuc(a1-6)]GlcNAc
# In short: as §1
# [12] = target: Fuc(a1-2)Gal(b1-3)GlcNAc(b1-3)Gal(b1-4)Glc
# In short: as §1
# [13] = target: Fuc(a1-2)Gal(b1-3)GlcNAc(b1-3)GalNAc
# In short: as §1
# [14] = target: Fuc(a1-2)Gal(b1-3)GlcNAc(b1-3)[Fuc(a1-2)Gal(b1-3)GlcNAc(b1-6)]GalNAc
# In short: as §1
# [15] = target: Fuc(a1-2)Gal(b1-3)GlcNAc(b1-3)[Gal(b1-4)GlcNAc(b1-6)]Gal(b1-4)Glc
# In short: as §1
# [16] = target: Fuc(a1-2)Gal(b1-3)GlcNAc(b1-3)[Neu5Ac(a2-6)Gal(b1-4)GlcNAc(b1-6)]Gal(b1-4)Glc
# In short: as §1
# [17] = target: Fuc(a1-2)Gal(b1-3)GlcNAc6S
# In short: as §1
# [18] = target: Fuc(a1-2)Gal(b1-3)[Fuc(a1-4)]GlcNAc
# In short: as §1
# [19] = target: Fuc(a1-2)Gal(b1-3)[Fuc(a1-4)]GlcNAc(b1-2)Man(a1-3)[Fuc(a1-2)Gal(b1-3)[Fuc(a1-4)]GlcNAc(b1-2)Man(a1-3)]Man(b1-4)GlcNAc(b1-4)GlcNAc
# In short: as §1
# [20] = target: Fuc(a1-2)Gal(b1-3)[Fuc(a1-4)]GlcNAc(b1-2)Man(a1-3)[Fuc(a1-2)Gal(b1-3)[Fuc(a1-4)]GlcNAc(b1-2)Man(a1-6)]Man(b1-4)GlcNAc(b1-4)[Fuc(a1-6)]GlcNAc(b1-4)[Fuc(a1-6)]GlcNAc
# In short: as §1
# [21] = target: Fuc(a1-2)Gal(b1-3)[Fuc(a1-4)]GlcNAc(b1-3)[Fuc(a1-3)[Gal(b1-4)]GlcNAc(b1-6)]Gal(b1-4)Glc
# In short: as §1
# [22] = target: Fuc(a1-2)Gal(b1-3)[Fuc(a1-4)]GlcNAc(b1-3)[Gal(b1-4)GlcNAc(b1-6)]Gal(b1-4)Glc
# In short: as §1
# [23] = target: Fuc(a1-2)Gal(b1-4)Fuc(a1-3)]GlcNAc(b1-2)Man(a1-3)[Fuc(a1-2)Gal(b1-4)[Fuc(a1-3)]GlcNAc(b1-2)Man(a1-6)]Man(b1-4)GlcNAc(b1-4)GlcNAc
# In short: as §1
# [24] = target: Fuc(a1-2)Gal(b1-4)Glc
# In short: as §1
# [25] = target: Fuc(a1-2)Gal(b1-4)Glc6S
# In short: as §1
# [26] = target: Fuc(a1-2)Gal(b1-4)GlcNAc
# In short: as §1
# [27] = target: Fuc(a1-2)Gal(b1-4)GlcNAc(b1-2)Man
# In short: as §1
# [28] = target: Fuc(a1-2)Gal(b1-4)GlcNAc(b1-2)Man(a1-3)[Fuc(a1-2)Gal(b1-4)GlcNAc(b1-2)Man(a1-6)]Man(b1-4)GlcNAc(b1-4)GlcNAc
# In short: as §1
# [29] = target: Fuc(a1-2)Gal(b1-4)GlcNAc(b1-2)Man(a1-3)[Fuc(a1-2)Gal(b1-4)GlcNAc(b1-2)Man(a1-6)]Man(b1-4)GlcNAc(b1-4)[Fuc(a1-6)]GlcNAc
# In short: as §1
# [30] = target: Fuc(a1-2)Gal(b1-4)GlcNAc(b1-2)[Fuc(a1-2)Gal(b1-4)GlcNAc(b1-4)]Man(a1-3)[Fuc(a1-2)Gal(b1-4)GlcNAc(b1-2)Man(a1-6)]Man(b1-4)GlcNAc(b1-4)GlcNAc
# In short: as §1
# [31] = target: Fuc(a1-2)Gal(b1-4)GlcNAc(b1-3)Gal(b1-4)GlcNAc
# In short: as §1
# [32] = target: Fuc(a1-2)Gal(b1-4)GlcNAc(b1-3)Gal(b1-4)GlcNAc(b1-2)Man(a1-3)[Fuc(a1-2)Gal(b1-4)GlcNAc(b1-3)Gal(b1-4)GlcNAc(b1-2)Man(a1-6)]Man(b1-4)GlcNAc(b1-4)GlcNAc
# In short: as §1
# [33] = target: Fuc(a1-2)Gal(b1-4)GlcNAc(b1-3)Gal(b1-4)GlcNAc(b1-3)Gal(b1-4)GlcNAc
# In short: as §1
# [34] = target: Fuc(a1-2)Gal(b1-4)GlcNAc(b1-3)GalNAc
# In short: as §1
# [35] = target: Fuc(a1-2)Gal(b1-4)GlcNAc(b1-3)[Fuc(a1-2)Gal(b1-4)GlcNAc(b1-6)]GalNAc
# In short: as §1
# [36] = target: Fuc(a1-2)Gal(b1-4)GlcNAc(b1-3)[Fuc(a1-3)[Gal(b1-4)]GlcNAc(b1-6)]Gal(b1-4)Glc
# In short: as §1
# [37] = target: Fuc(a1-2)Gal(b1-4)GlcNAc(b1-6)GalNAc
# In short: as §1
# [38] = target: Fuc(a1-2)Gal(b1-4)GlcNAc6S
# In short: as §1
# [39] = target: Fuc(a1-2)Gal(b1-4)[Fuc(a1-3)]GalNAc(b1-3)Gal(b1-4)[Fuc(a1-3)]GlcNAc
# In short: as §1
# [40] = target: Fuc(a1-2)Gal(b1-4)[Fuc(a1-3)]GalNAc(b1-3)Gal(b1-4)[Fuc(a1-3)]GlcNAc(b1-3)Gal(b1-4)[Fuc(a1-3)]GalNAc
# In short: as §1
# [41] = target: Fuc(a1-2)Gal(b1-4)[Fuc(a1-3)]GlcNAc
# In short: as §1
# [42] = target: Fuc(a1-2)Gal(b1-4)[Fuc(a1-3)]GlcNAc(b1-2)Man(a1-3)[Fuc(a1-2)Gal(b1-4)[Fuc(a1-3)]GlcNAc(b1-2)Man(a1-6)]Man(b1-4)GlcNAc(b1-4)[Fuc(a1-6)]GlcNAc
# In short: as §1
# [43] = target: Fuc(a1-2)Gal(b1-4)[Fuc(a1-3)]GlcNAc(b1-2)[Fuc(a1-2)Gal(b1-4)[Fuc(a1-3)]GlcNAc(b1-4)]Man(a1-3)[Fuc(a1-2)Gal(b1-4)[Fuc(a1-3)]GlcNAc(b1-2)Man(a1-6)]Man(b1-4)GlcNAc(b1-4)GlcNAc
# In short: as §1
# [44] = target: Fuc(a1-2)Gal(b1-4)[Fuc(a1-3)]GlcNAc(b1-3)Gal(b1-4)[Fuc(a1-3)]GlcNAc
# In short: as §1
# [45] = target: Fuc(a1-2)Gal(b1-4)[Fuc(a1-3)]GlcNAc(b1-3)Gal(b1-4)[Fuc(a1-3)]GlcNAc(b1-3)Gal(b1-4)[Fuc(a1-3)]GlcNAc
# In short: as §1
binder,measurement,setting,value
"LTL (Lotus tetragonolobus), P19664 (protein) VSFNYTEFKDDGSLILQGDAKIWTDGRLAMPTDPLVNNPKTTRSAGRALYATPVPIWDSATGNVASFVTSFNFLFVIRELKYTPTDGLVFFLAPVGTEIPSGSTGGFLGIFDGSNGFNQFVAVEFDSYHNIWDPKSLRSSHVGIDVNSIMSLKAVNWNRVSGSLEKATIIYDSQTNILSVVMTSQNGQITTIYGTIDLKTVLPEKVSVGFSATTGNPEREKHDIYSWSFTSTLKEPEEQA",glycan array binding signal (z-score),[1],0.351
same,glycan array binding signal (z-score),[2],-0.337
same,glycan array binding signal (z-score),[3],-0.173
same,glycan array binding signal (z-score),[4],-0.117
same,glycan array binding signal (z-score),[5],0.149
same,glycan array binding signal (z-score),[6],-0.128
same,glycan array binding signal (z-score),[7],0.013
same,glycan array binding signal (z-score),[8],-0.236
same,glycan array binding signal (z-score),[9],-0.223
same,glycan array binding signal (z-score),[10],0.27
same,glycan array binding signal (z-score),[11],-0.226
same,glycan array binding signal (z-score),[12],-0.241
same,glycan array binding signal (z-score),[13],-0.132
same,glycan array binding signal (z-score),[14],0.035
same,glycan array binding signal (z-score),[15],-0.196
same,glycan array binding signal (z-score),[16],-0.272
same,glycan array binding signal (z-score),[17],-0.15
same,glycan array binding signal (z-score),[18],-0.277
same,glycan array binding signal (z-score),[19],0.157
same,glycan array binding signal (z-score),[20],-0.192
same,glycan array binding signal (z-score),[21],-0.312
same,glycan array binding signal (z-score),[22],-0.265
same,glycan array binding signal (z-score),[23],0.157
same,glycan array binding signal (z-score),[24],0.344
same,glycan array binding signal (z-score),[25],-0.014
same,glycan array binding signal (z-score),[26],0.463
same,glycan array binding signal (z-score),[27],-0.289
same,glycan array binding signal (z-score),[28],-0.034
same,glycan array binding signal (z-score),[29],-0.255
same,glycan array binding signal (z-score),[30],0.114
same,glycan array binding signal (z-score),[31],-0.29
same,glycan array binding signal (z-score),[32],0.486
same,glycan array binding signal (z-score),[33],-0.156
same,glycan array binding signal (z-score),[34],-0.169
same,glycan array binding signal (z-score),[35],-0.109
same,glycan array binding signal (z-score),[36],0.046
same,glycan array binding signal (z-score),[37],0.22
same,glycan array binding signal (z-score),[38],-0.057
same,glycan array binding signal (z-score),[39],-0.279
same,glycan array binding signal (z-score),[40],-0.524
same,glycan array binding signal (z-score),[41],4.58
same,glycan array binding signal (z-score),[42],0.945
same,glycan array binding signal (z-score),[43],0.272
same,glycan array binding signal (z-score),[44],0.402
same,glycan array binding signal (z-score),[45],0.405

# From the supplement of paper PMC8728848
